Measurements reported in article PMC4336329 (PLoS ONE, 2015).
The whole screen tested about 310,000 compounds, of which about 2,200 (0.71%) showed an effect of 50% or more. Effects have a minus sign here. The list shows a part of the results.

Molecular target: human ether-à-go-go-related gene (hERG) potassium channel (human, UniProt Q12809)
Experiment: primary screen, population patch clamp on CHO cells stably expressing hERG

Sequence of human ether-à-go-go-related gene (hERG) potassium channel (Q12809 whole entry, looked up): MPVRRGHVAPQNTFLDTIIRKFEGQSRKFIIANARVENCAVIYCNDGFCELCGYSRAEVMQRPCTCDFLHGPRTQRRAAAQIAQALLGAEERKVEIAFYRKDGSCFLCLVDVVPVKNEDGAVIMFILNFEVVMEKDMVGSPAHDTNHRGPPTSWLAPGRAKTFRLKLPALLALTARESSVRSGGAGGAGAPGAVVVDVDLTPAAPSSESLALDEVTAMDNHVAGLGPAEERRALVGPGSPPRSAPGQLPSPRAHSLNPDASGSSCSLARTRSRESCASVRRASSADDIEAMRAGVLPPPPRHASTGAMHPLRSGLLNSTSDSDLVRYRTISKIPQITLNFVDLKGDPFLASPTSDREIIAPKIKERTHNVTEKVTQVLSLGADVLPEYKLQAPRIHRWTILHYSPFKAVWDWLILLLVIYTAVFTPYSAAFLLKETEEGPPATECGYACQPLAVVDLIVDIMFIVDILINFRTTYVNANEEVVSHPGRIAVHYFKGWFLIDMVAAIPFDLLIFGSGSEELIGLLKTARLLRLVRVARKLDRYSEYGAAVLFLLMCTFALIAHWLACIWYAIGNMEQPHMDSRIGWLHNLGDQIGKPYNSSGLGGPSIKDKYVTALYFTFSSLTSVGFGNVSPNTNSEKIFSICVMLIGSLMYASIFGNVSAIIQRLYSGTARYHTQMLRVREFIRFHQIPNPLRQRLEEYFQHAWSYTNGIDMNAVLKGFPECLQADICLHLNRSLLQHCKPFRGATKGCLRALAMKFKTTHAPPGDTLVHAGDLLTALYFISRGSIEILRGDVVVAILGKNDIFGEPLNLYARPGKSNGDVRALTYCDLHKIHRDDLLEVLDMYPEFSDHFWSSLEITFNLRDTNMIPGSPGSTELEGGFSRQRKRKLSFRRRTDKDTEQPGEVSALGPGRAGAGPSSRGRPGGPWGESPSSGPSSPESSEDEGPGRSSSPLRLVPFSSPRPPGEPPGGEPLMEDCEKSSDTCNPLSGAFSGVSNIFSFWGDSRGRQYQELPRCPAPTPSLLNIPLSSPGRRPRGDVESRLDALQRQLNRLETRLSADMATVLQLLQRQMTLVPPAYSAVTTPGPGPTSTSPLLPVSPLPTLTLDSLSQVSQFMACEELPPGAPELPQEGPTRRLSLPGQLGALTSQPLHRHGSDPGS

| SMILES | hERG current change (%, negative = inhibition) at 1uM [%] |
| --- | --- |
| O=C(/C=C/c1ccco1)NCC1COc2ccccc2O1 (stereo not shown) | 10.4 |
| COc1ccc(NC(=O)[C@H](C)NC(=O)C2CCN(S(=O)(=O)c3ccc(OC)cc3)CC2)cc1 | 9.33 |
| CCCCNC(=O)c1ccccc1NC(=O)CCSc1ccccc1 | 6.03 |
| Cc1oc(-c2cccc(C(F)(F)F)c2)nc1CN1CCN(c2ccccn2)CC1 | 6.15 |
| CC1(c2ccccc2)NC(=O)N(CC(=O)Nc2ccc(S(=O)(=O)Nc3ncccn3)cc2)C1=O (stereo not shown) | 14.2 |
| CCN1C(=O)[C@H]2[C@@H](c3ccc(OC)cc3)N3C(=O)CN(CCOC)C(=O)[C@@]3(Cc3ccccc3)[C@H]2C1=O | 0.249 |
| Cc1ccc(C2NC(C(=O)O)CS2)cc1 (stereo not shown) | 9.28 |
| Cc1ccc(-c2noc(CN3CCOCC3)n2)cc1 | 17.1 |
| O=C(Nc1nnc(SCc2ccccc2)s1)C1=COCCO1 | -4.07 |
| COc1cc(OC)c2ccc(=O)oc2c1C(CCN1CCCCC1)c1ccc(N(C)C)cc1 (stereo not shown) | 10.1 |
| CCc1ccccc1NC(=O)c1ccc2nc(N3CCOCC3)sc2c1 | 2.16 |
| Cc1oc(-c2ccc3c(c2)OCCO3)cc1C(=O)NC(CCC(=O)O)C(=O)O (stereo not shown) | 9.12 |
| COc1ccccc1C(=O)Nc1ccc(S(=O)(=O)N2CCc3ccccc32)cc1 | -36.9 |
| O=C1CN(C(=O)C2CCC(=O)N(CCc3ccc(Cl)cc3)C2)CCN1 (stereo not shown) | 15.3 |
| CC1=CC2=NC(=O)/C(=C/c3coc4ccc(Cl)cc4c3=O)C(=N)N2O1 | 12.7 |
| Cc1ccccc1N1CCN(CCN2C(=O)CC(=C3c4ccccc4-c4ccccc43)C2=O)CC1 | 9.78 |
| COc1ccc(N(C(=O)c2cnccn2)C(C(=O)NC2CCCCC2)c2ccccc2)cc1 (stereo not shown) | 5.65 |
| O=C(COc1ccc2c3c(c(=O)oc2c1)CCC3)NC1CCN(Cc2ccccc2)CC1 | -3.5 |
| CC(=O)Nc1cc2cc(NS(=O)(=O)c3ccc(C)cc3)ccc2oc1=O | 13.8 |
| O=C(CSc1ccc(-c2ccccc2)nn1)N1CCOCC1 | -10.3 |
| C/C(=N\NC(=O)CNc1cccc(Cl)c1C)C1CC1 | 19.7 |
| N#Cc1ccc(C(=O)Nc2cc(S(=O)(=O)N3CCCC3)ccc2OCC(F)(F)F)cc1 | -2.09 |

| SMILES | hERG current change (%, negative = inhibition) at 1uM [%] |
| --- | --- |
| Cc1c(N=Nc2c(O)n(-c3ccc(Br)cc3)c(=O)[nH]c2=O)c(=O)n(-c2ccccc2)n1C | 13.8 |
| Nc1ccc(C(=O)N2CCN(S(=O)(=O)c3ccc(Cl)s3)CC2)cc1[N+](=O)[O-] | 4.82 |
| O=C(NC1CCCCCC1)c1ccc(CN2CCOCC2)cc1 | 16.5 |
| CCCNC(=O)NC(=O)COc1c(F)c(F)cc(F)c1F | -3.36 |
| O=C(CCN1C(=O)C2C3C=CC(C3)C2C1=O)NCCN1CCCc2ccccc21 (stereo not shown) | -4.28 |
| O=C(CCCCCNC(=O)c1ccccc1Cl)N/N=C/c1ccco1 | 14.8 |
| Cc1ccc(S(=O)(=O)NCC(c2ccco2)N2CCOCC2)cc1 (stereo not shown) | 0.699 |
| Cc1onc(-c2c(Cl)cccc2Cl)c1C(=O)n1nnc2ccccc21 | 7.22 |
| COc1ccc(OC)c(NC(=O)CN(C)S(=O)(=O)c2ccc(Cl)cc2)c1 | 6.95 |
| CCOc1ccc(C2C(C#N)=C(N)N(c3sc4c(c3C#N)CCCC4)C3=C2C(=O)CCC3)cc1 (stereo not shown) | 3.62 |
| NC(=O)c1ccccc1N/C=C1\CCCCC1=O | 10.8 |
| COCc1c(C(=O)OCC(=O)c2c(N)n(CC(C)C)c(=O)n(C)c2=O)oc2ccccc12 | 5.53 |
| CSc1ccc(S(=O)(=O)NCC(=O)OCC(=O)N2CCCCC2C)cc1[N+](=O)[O-] (stereo not shown) | 18.9 |
| Cc1ccc(S(=O)(=O)NCCC(=O)Nc2ccncc2)cc1C | -3.57 |
| CCN(CC)S(=O)(=O)c1cccc(NC(=O)COc2ccc(C#N)cc2OC)c1 | -6.54 |
| Cc1ccc2nc(SCC(=O)c3c[nH]c4ccccc34)[nH]c2c1 | 24 |
| COc1cccc(C(=O)OC2CCCN(C)C2)c1.Cl (stereo not shown) | -0.829 |
| COc1ccc(C(C(=O)NC(C)(C)C)N(C(=O)CNC(=O)c2cccs2)c2ccc(NC(C)=O)cc2)cc1OC (stereo not shown) | 12.2 |
| Cc1cc(N2C(=O)[C@@H]3[C@H](C2=O)[C@@H]2C[C@H]3C(Br)C2Br)no1 (stereo partly shown) | 13.2 |
| CCOc1ccc(NC(=O)C23CC4CC(C2)CC(c2ccccc2)(C4)C3)cc1 | 11 |
| Cc1nc(NC(=O)c2ccccc2O)sc1C | 8.06 |
| COc1cccc(-c2nnc(SCC(=O)Nc3cc(C)ccc3OC)n2N)c1 | 7.6 |

| SMILES | hERG current change (%, negative = inhibition) at 1uM [%] |
| --- | --- |
| Cc1ccccc1-c1ccc(C=Nc2c(C)n(C)n(-c3ccccc3)c2=O)o1 | 11.8 |
| Cc1nc(SCC(=O)N2CCC(C(N)=O)CC2)n[nH]1 | 16 |
| CC(=O)Nc1ccc(S(=O)(=O)N(C)CC(=O)OCC(=O)c2ccc3c(c2)NC(=O)CO3)cc1 | 9.86 |
| Cc1c(-c2c(C#N)c(N)nc3c2CCCCCC3)cnn1C | 10.9 |
| COc1ccc(NC(=O)C2CCN(C(=O)c3cccs3)CC2)cc1 | 0.544 |
| COC(=O)c1nnn(-c2nonc2N)c1CN1CCCC1 | 7.01 |
| CCc1ccc(NC(=O)c2cnc3n(c2=O)CCS3)cc1 | -0.518 |
| COC(=O)/C=C1\N/C(=N\c2nc(C)cc(C)n2)N(c2ccc(C)c(C)c2)C1=O | -3.59 |
| COc1ccc2c(c1)/C(=N/N1C(=O)c3ccccc3C1=O)C(=O)N2 | 11.4 |
| O=C1CN(C(=O)c2ccc(Br)o2)C(c2ccccc2)c2cc(Cl)ccc2N1 (stereo not shown) | 5.24 |
| O=C(CCC(=O)Nc1ccccc1)NNC(=O)CCc1ccccc1 | 13.6 |
| Cc1ccc(C(=O)Nc2ncc(C)s2)s1 | 13.2 |
| COc1ccccc1N1CCN(C2CCCN(C(=O)CCc3ccccn3)C2)CC1 (stereo not shown) | 6.71 |
| COc1ccc(C(=O)OCC(=O)Nc2nc3c(F)c(F)c(F)cc3s2)cc1OC | 7.17 |
| C/C(=N\Nc1ccc(Cl)c(C(=O)O)c1)c1ccc2c(c1)OCO2 | 25.5 |
| O=C(Nc1nc2n(n1)C(c1ccc(Cl)cc1)CC(c1ccc(Cl)cc1)N2)c1ccco1 (stereo not shown) | -3.7 |
| O=C(NCc1ccco1)c1nn2c(C(F)(F)F)cc(-c3cccs3)nc2c1Cl | 6.34 |
| CC[C@@]12C(=O)N(c3ccc(C)cc3)C(=O)N1[C@H](c1ccc(Br)cc1)[C@@H]1C(=O)N(C(C)(C)C)C(=O)[C@@H]12 | 9.86 |
| COC(=O)c1c(NC(=O)Cc2cccs2)sc2c1CCCC2 | 3.71 |
| CN1C(=O)N(CC(=O)N2CCN(S(=O)(=O)/C=C/c3ccccc3)CC2)C(=O)C12CCCCC2 | 4.7 |
| Cc1ccc(SCC(=O)N2CC(C)OC(C)C2)cc1 (stereo not shown) | 10.9 |
| CCOC(=O)N1CCN(C(=O)Nc2ccc(Cl)cc2)CC1 | -1.23 |

| SMILES | hERG current change (%, negative = inhibition) at 1uM [%] |
| --- | --- |
| CC(=O)c1sc(NC(=O)COc2ccc(C(C)C)c(C)c2)nc1C | 10.4 |
| O=C(O)CC1S/C(=N\N=C2\C(=O)Nc3ccccc32)N(c2ccc(O)cc2)C1=O (stereo not shown) | 1.39 |
| Cc1ccccc1N(CC(=O)NCc1ccncc1)S(C)(=O)=O | 31.5 |
| CCOc1ccc(NC(=O)CCC(=O)NNC(=O)c2ccc(Br)o2)cc1 | 15.5 |
| Cn1nc(-c2ccc(OCC(=O)N3CCN(Cc4ccccc4)CC3)cc2)c2ccccc2c1=O | 5.73 |
| COc1ccccc1/C=C(/C(=O)OCC(=O)N(C)Cc1ccccc1)c1ccccc1 | 12 |
| Cc1ccc(C(=O)NC(=S)N2CCN(c3cc(C)ccc3C)CC2)cc1 | -5.07 |
| OCCSc1nnc(Nc2ccccc2)s1 | -1.33 |
| CO/N=C/C(C#N)=C/c1cc(C(=O)c2ccccc2)cn1C | 17.1 |
| COc1ccc(N=C2NC(=O)/C(=C/c3ccc(O)c(OC)c3)S2)cc1 | 10 |
| OCc1cn(-c2ccccc2)nn1 | 12.9 |
| Cc1ccc2cc3cc(C(=O)NCc4ccco4)oc3nc2c1 | 10.1 |
| COc1ccc(Cl)cc1C(=O)NCC(=O)OCc1ccccc1 | -0.0765 |
| CC/C(=N\Nc1ccccc1)c1c(O)[nH]c(=O)[nH]c1=O | 21.4 |
| O=C1CCCCN1CC(=O)N1CCCC(N2CCN(c3ccccc3F)CC2)C1 (stereo not shown) | 3.41 |
| NC(=O)CSC1=Nc2ccccc2C2=NC(CC(=O)NCc3cccs3)C(=O)N12 (stereo not shown) | 10.4 |
| O=C(Nc1c(-c2ccccc2)nc2ccccn12)c1ccccc1F | 2.01 |
| CCOc1ccc(-c2cc(C)[n+](CCO)c(-c3ccc(OCC)cc3)c2)cc1.[O-][Cl+3]([O-])([O-])[O-] | 1.92 |
| COc1ccc(OC)c2[nH]c(=O)c(CCNC(C)=O)cc12 | 8.31 |
